Measurements reported in ChEMBL document CHEMBL4888484, “Replenishing the malaria drug discovery pipeline: Screening and hit evaluation of the MMV Hit Generation Library 1 (HGL1) against asexual blood stage Plasmodium falciparum ,using a nano luciferase reporter read-out” (2022).
Out of some 150,000 compounds screened, about 540 (0.36%) showed an effect of 50% or more. The list shows a part of the results.

system: Plasmodium falciparum; assay: Primary screen in NF54 nanoGlo assay, in single point, at 2uM, 72h; a lower Z score goes with more inhibition; assay type: functional, Erythrocyte; details: timepoint 72 hour

Compound	% Inhibition [%]	Z score
Cc1c(C(C)NC(=O)OCC2CCCO2)cnn1C (stereo not drawn)	-2	0.2
CCn1c(=O)c2ccnn2c2ccc(C(=O)N3CCCC3)cc21	-6	0.69
CCn1ccc(C(=O)N2CCC[C@](c3nnnn3CCOC)(N3CCOCC3)C2)n1	-11	1.39
COc1ccc(C(C)=O)c(OCC(=O)Nc2cccc(N3CCCC3=O)c2)c1	-8	1.3
O=C(Cc1ccc(O)cc1)Nc1ccc(Nc2ncccn2)cc1	-12	2.09
O=C(NCCc1cnn(-c2ccccc2)c1)c1cnc(Cn2cncn2)nc1O	-20	1.92
CN(C)S(=O)(=O)N(CCN1CCCC1)[C@H]1CCN(S(=O)(=O)c2cccc(F)c2)C1	29	-3.29
CC(C)c1cc(Cn2ncn3cccc3c2=O)on1	-1	0.12
O=S(=O)(Cc1nc(O)cc(C(F)(F)F)n1)Cc1noc2c1CCCC2	2	-0.25
CN(C)c1nsc(NC[C@@H]2COc3ccccc3C2)n1	-4	0.73
O=C(O)c1ccc(NCCc2cccs2)cc1	-7	1.08
Cc1cccc(CC2(NC(=O)c3cncnc3)CC2)c1	-2	0.25
Cc1ccc(-c2cc(C(F)(F)F)on2)cc1S(=O)(=O)NCCc1cccs1	-5	0.87
Cc1cccc(C(=O)N(C)Cc2cc(C)on2)n1	-8	1.05
CC1CCCCN1C(=O)c1ccc(CNC(=O)CC(NC(N)=O)c2ccccc2Cl)cc1 (stereo not drawn)	-2	0.19
CCN1C[C@@H](C(=O)NCc2noc(CCOC)n2)CC1=O	12	-2.06
CCN(CCOC)C(=O)[C@@H]1CCCCCN1C	-3	0.36
COc1ccccc1CCNC(=O)c1ccc(CN2CCN(c3ccc(C)cc3)CC2)cc1	-4	0.38
Cc1cccnc1NC(=O)C(=O)NCCc1c[nH]c2cccc(C)c12	31	-3.54
Cc1cc(C(=O)NC2(C)CCCC2)nc(C(F)(F)F)n1	4	-0.81
COc1ccc(C)cc1S(=O)(=O)N1CCOC[C@H]1C1CC1	2	-0.45

Compound	% Inhibition [%]	Z score
O=C(Cc1ccc(F)cc1)N1CCCN(C2=Nc3cc(C(F)(F)F)ccc3Oc3ccccc32)CC1	-13	2.17
CCOC1CC(N(C)C(=O)c2cc(C3CC3)on2)C12CCC2 (stereo not drawn)	-10	0.85
O=C(NCCc1ccccc1)c1ccc2c(c1)n(Cc1ccccc1)c(=O)c1ccnn12	-1	0.11
O=C(NCCc1cn[nH]c1)Nc1nc(C2CCCCC2)cs1	6	-0.98
CCCc1nnsc1C(=O)N1CCc2c(cnc3cc(C)nn23)C1	-2	0.32
CCOc1ccc(C(=O)NCc2ccccc2OC)nn1	-11	1.93
Cc1ccc(S(=O)(=O)n2c(=O)sc3ccccc32)cc1	-11	2.05
COCCOC[C@H]1CCN(C(=O)c2cccc(C)n2)C1	-10	1.34
O=C(Cc1ccc(F)cc1)Nc1ccc2c(c1)C(=O)N1CCC[C@H]1C(=O)N2	-3	0.48
Nc1nc(N2CCN(C3CCCCC3)CC2)ncc1C(=O)NCc1ccccc1F	-17	1.98
CCc1nc(CN(CC(C)C)C(=O)C2CCC2)[nH]c(=O)c1Cc1ccc(OC)cc1	3	-0.26
COC1(C)CN(C(=O)c2cnc(C)cn2)C1	-9	1.21
Cn1ccnc1CN[C@H](c1ccccc1)C(C)(C)C(=O)O	0	-0.06
O=C(C1OCC2COCCC21)N(CC1CCCCC1)c1ccccn1 (stereo not drawn)	19	-2.22
c1ccc(CC2(CNC3CC3)CC3CCC2C3)cc1 (stereo not drawn)	0	-0.02
COCCN1CCN(Cc2cncs2)CC1=O	-11	1.73
Cc1cc(C(=O)N2C[C@H]3CC[C@@H](C2)N(Cc2c(C)noc2C)C3=O)[nH]n1	-6	0.53
Cc1ccc2c(c1)CCCN2C(=O)CC[C@H]1CCCCO1	-8	0.98
CC[C@@H](CN(CC)C(=O)c1ccc(C(N)=O)cn1)c1ccccc1	1	-0.07
O=C(NCCNc1cc(Nc2ccccn2)ncn1)c1cccc(F)c1	-4	0.68
C[C@H]1Cc2ccccc2N1C(=O)c1cccc(S(=O)(=O)N2CCOCC2)c1	-6	0.99

Compound	% Inhibition [%]	Z score
Cc1ccc(C)c(CN2C[C@H](C(=O)NCc3ccncc3)C3(CCOCC3)C2)c1	2	-0.3
Cc1noc(C)c1CNC(=O)c1ccccc1	4	-0.61
COc1ccc(NC(=O)CC2(N3Cc4ccccc4C3=O)CCN(C(C)=O)CC2)cc1Cl	-1	0.19
CCCc1cc(-c2cccc(C(=O)N3CC[C@@H](O)C3)c2)nc(C)n1	-8	1.49
COCCn1nnc2cc(S(=O)(=O)N(C)CC(=O)NCc3ccc(F)cc3)ccc21	-28	2.45
CCn1c(Cn2cnc(C#N)n2)nc2cc(F)ccc21	-4	0.7
CCC1=NO[C@@H](CNC(=O)Nc2cnn(C)c2C)C1	-1	0.23
CC(C)CN1CCN2C(=O)[C@H](C)N(C(=O)CCc3nc4ccccc4s3)C[C@H]2C1=O	-12	1.09
Cc1cccc(S(=O)(=O)c2cnc(N3CCC(Cc4ccccc4)CC3)nc2N)c1	36	-4.69
O=C(NCCN1CCc2ccccc21)C1(N2CCCC2)CCCCC1	-7	1.1
Cc1cccc(N2CCN(C(=O)c3cnn4c(C(F)(F)F)cc(-c5cccs5)nc34)C[C@@H]2C)c1	0	0.04
CC(C)N1CCN(C(=O)NCc2cc(C3CC3)ccc2F)CC1	5	-0.75
CCC1CN2CCCC2CN1S(=O)(=O)CC1CCCCO1 (stereo not drawn)	-6	1.05
COC(=O)[C@@H](Cc1ccccc1)NC(=O)c1cc(-c2ccccc2Cl)nn1C	-15	1.71
O=S(=O)(NCC1CCCCC1)c1ccc(-n2cnnn2)cc1	-1	0.25
COc1ccc2c(c1)C(N1CCN(C(=O)c3ccc(Cl)cc3)[C@@H](C)C1)=Nc1ccc(C)cc1O2	6	-0.8
c1ccc2c(c1)N=C1C[C@H](N2)[C@H]2CO[C@@H]1O2	7	-1.12
O=C(O)c1ccc(N2CCC[C@H](CN3CCCC3)C2)c(NS(=O)(=O)c2ccccc2Cl)c1	2	-0.19
CC1c2[nH]c3ccccc3c2CC2C(=O)N(c3ccccc3C(=O)O)C(=O)N21 (stereo not drawn)	-11	1.05
Cc1nn(-c2ccccc2)c2nc(Cc3ccccc3)nc(N3CCN(C(=O)c4cccc(Br)c4)CC3)c12	-8	1.24
Cc1cnn(-c2cccc(N3CCN[C@H](C)C3)n2)c1	-13	2.04

Compound	% Inhibition [%]	Z score
COc1cc(OC)cc(C(=O)N2CCC[C@H](Oc3ccncc3)C2)c1	21	-2.86
COc1ccc(N(Cc2nnc(-c3ccco3)o2)C(C)C)cc1F	-14	2.05
N#CCCN1CC(O)CC1C1CCCCC1 (stereo not drawn)	-7	1.03
Cc1cccc(NC(=O)[C@H]2CCCN(c3nc4ccccc4[nH]3)C2)c1C	11	-1.92
COc1cccc(CNC(=O)c2sc(Nc3ccc(F)cn3)nc2C)c1	-5	0.96
CC(C)NC(=O)[C@@H]1C[C@@H](N)CN1C(=O)Cc1c(Cl)cccc1Cl	-6	1.11
CCc1ccc(-n2nnc(-c3nnc(-c4ccco4)o3)c2C)cc1	-16	2.35
CCCCCOc1ccc(S(N)(=O)=O)cc1C(C)C	-17	1.65
CCn1nc(C)c(-c2ccc(C(=O)N3CCC4(CCO4)CC3)cc2)c1C	0	0.07
CC(=O)c1c(C)[nH]c(C(=O)[C@H](C)Nc2ccc3c(c2)OC2(CCCCC2)O3)c1C	-8	1.22
CCC(C)C(C)(O)CNS(=O)(=O)c1ccc(F)cc1 (stereo not drawn)	-9	1.09
CC(C)(C)OC(=O)N1CCN[C@@H](CNC(=O)Nc2ccccn2)C1	0	0.05
Cc1cc(C(F)(F)F)n(C[C@@H](C)CNC(=O)CNC(N)=O)n1	8	-1.32
CC(=O)N1CCCN(C(=O)c2ccc(-c3ccccc3)[nH]c2=O)CC1	2	-0.39
CC1C(Cc2ccccc2)CCN1C(=O)C1CCCN1 (stereo not drawn)	-5	0.6
COc1cc(OC)nc(Oc2ccc(C(=O)NS(=O)(=O)C(C)C)c(Cl)c2)n1	-28	3.24
COCCOc1ccc(NCc2cc(C#N)n(C)c2C)cn1	9	-1.64
CC[C@H](C)[C@H](Nc1c(C#N)c(=O)n(C)c(=O)n1C)C(=O)OC(C)(C)C	0	0.02
COC[C@H](C)OC(=O)c1cccc(C#N)c1	-8	1.16
Cc1ncsc1CCC(=O)N(C)Cc1n[nH]c2c1CCC2	7	-0.89
Cc1cc(C(=O)N2CCOc3ccc(CN4CCOCC4)cc3C2)nn1C	-22	2.38
